Experimental data reported in PMC6919601, “Identification of Plasmodium dipeptidyl aminopeptidase allosteric inhibitors by high throughput screening” (PLoS ONE, 2019).
Hit rate of the full screen: of about 110,000 compounds, about 230 (0.21%) showed an effect of 50% or more. This is one part of the list.

What follows are compounds tested against DPAP1 (Plasmodium falciparum, UniProt Q8IIJ9) (assay: primary screen, percent inhibition; read by cleavage of a fluorogenic dipeptide substrate; higher = more effect of the substance).
Chain of DPAP1 (Q8IIJ9 whole entry, looked up): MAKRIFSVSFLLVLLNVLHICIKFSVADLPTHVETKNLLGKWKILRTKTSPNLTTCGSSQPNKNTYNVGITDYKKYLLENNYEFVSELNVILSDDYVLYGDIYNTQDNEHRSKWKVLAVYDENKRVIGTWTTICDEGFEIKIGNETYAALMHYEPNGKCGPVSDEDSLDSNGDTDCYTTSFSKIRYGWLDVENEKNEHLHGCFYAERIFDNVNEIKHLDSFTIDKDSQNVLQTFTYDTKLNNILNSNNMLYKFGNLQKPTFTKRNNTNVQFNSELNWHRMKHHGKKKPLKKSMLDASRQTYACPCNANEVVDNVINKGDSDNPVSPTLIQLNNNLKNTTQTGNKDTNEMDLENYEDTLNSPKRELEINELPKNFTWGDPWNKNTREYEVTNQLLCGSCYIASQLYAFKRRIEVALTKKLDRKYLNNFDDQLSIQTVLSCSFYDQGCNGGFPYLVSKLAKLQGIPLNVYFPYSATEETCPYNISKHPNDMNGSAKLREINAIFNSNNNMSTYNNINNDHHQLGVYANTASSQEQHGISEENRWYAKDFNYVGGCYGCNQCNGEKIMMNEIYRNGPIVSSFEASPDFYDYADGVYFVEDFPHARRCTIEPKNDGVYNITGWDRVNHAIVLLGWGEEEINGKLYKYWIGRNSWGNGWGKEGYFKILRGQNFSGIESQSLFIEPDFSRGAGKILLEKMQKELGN
Design: species or system P. falciparum D10 trophozoite lysates; single well
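Note: 30 min substrate incubation versus DMSO and 10 µM JCP410 controls.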

SMILES | % Inhibition @ 10 uM [%]
O=C(CCSc1nc2cc(Cl)ccc2o1)N1CCCCC1 | 2.01
CCCCN(C)C(=O)c1ccc(CS(=O)(=O)c2ccccc2C)o1 | -3.09
CCC1(C)Nc2ccccc2C(=O)N1c1ccc(OC)cc1 (stereo not drawn) | -10.8
COc1cccc(-c2noc(-c3cc4c(ccc5ccccc54)oc3=O)n2)c1OC | -3.73
Cc1ccc(C(=O)Nc2ccc(Cl)cc2)cc1 | -6.08
CN(C1CCCCC1)S(=O)(=O)c1ccc(-c2cc(C(F)(F)F)no2)s1 | 4.87
CCN(c1ccccc1)S(=O)(=O)c1ccc(NC(=O)C2CCCCC2)cc1 | -9.59
Cc1nc2nc(-c3ccccc3)nn2c(O)c1C | 5.7
CC(C)c1cc(NCc2cccnc2)n2c(nc3ccccc32)c1C#N | -4.49
O=C(Cn1c(COc2ccccc2)nc2ccccc21)N1CCOCC1 | -1.72
Cc1cccn2c(=O)c3cc(C#N)c(=N)n(CC4CCCO4)c3nc12 (stereo not drawn) | 2.38
O=C(NCC1CCNCC1)c1ccccn1 | 1.76
N#CCCS(=O)(=O)c1ccc(-c2ccc(S(=O)(=O)CCC#N)cc2)cc1 | -7.32
O=C(c1ccncc1)N1CCNCC1 | 3.01
CCCN1C(=O)c2[nH]nc(-c3ccc(OC)cc3)c2C1c1ccc(O)cc1 (stereo not drawn) | -1.07
Cc1cccc(OCCOCCN2CCCC2)c1 | -3.78
CCCCN1C(=O)S/C(=C\c2cc(C)n(C)c2C)C1=O | -3.74
CCOc1ccc2nc(C(=O)N3CCCCC3)sc2c1 | -5.76
O=C(CCNS(=O)(=O)c1ccc2nc(O)ccc2c1)NCc1ccc2c(c1)OCO2 | -5.23
COc1ccc(-c2nc(-c3ccc(OC)c(OC)c3)[nH]c2-c2ccc(OC)cc2)cc1 | 0.132
CCOC(=O)c1c(NC(=O)c2ccccc2)sc2c1CC(C(C)C)OC2 (stereo not drawn) | 0.222
Cc1cc(C)c(C#N)c(SCC(=O)NCc2ccco2)n1 | 1.76
O=C(C1c2ccccc2Oc2ccccc21)N1CCCC1 | 2.36
CCC(C)N(C)Cc1cccc(C2(O)CCN(S(=O)(=O)c3ccc(F)c(C)c3)CC2)c1 (stereo not drawn) | 5.53
CCn1c(C)cc(/C=C2/NC(=O)N(c3ccc(Cl)cc3)C2=O)c1C | 6.4
COc1cc(C2C(C(=O)c3ccc(Cl)cc3)=C(O)C(=O)N2CCO)ccc1O (stereo not drawn) | 2.82

SMILES | % Inhibition @ 10 uM [%]
C=CCN(Cc1nc(-c2ccc(Cl)cc2)no1)C(=O)NC1CCCCC1 | 3.27
COc1cc(/C=C2\C(=O)NC(=S)N(c3ccc(Cl)cc3)C2=O)ccc1O | -5.23
Cc1cccc(-c2noc(C(C)NC(=O)c3ccco3)n2)c1 (stereo not drawn) | 5.54
Cc1ccc2oc(C(=O)N(Cc3ccccc3)C3CCS(=O)(=O)C3)c(C)c2c1 (stereo not drawn) | 5.31
Clc1ccc(N2CCN(Cc3ccco3)CC2)cc1 | 1.63
Cc1c(C(=O)Nc2nc3c(s2)CCCC3)oc2ccccc12 | -2.85
Cc1ccc(Cl)cc1-n1c(SCC(=O)NCCc2ccccc2)nc2nnc(C)c-2c1N | -2.17
Cc1[nH]c2ccccc2c1/C=C1/S/C(=N\c2ccccc2)N(C)C1=O | 13.8
CC1CCN(C(=O)CCc2nc(-c3ccc(Cl)cc3)no2)CC1 | -3.12
CN(C)CCN(Cc1ccccc1)Cc1ccccc1F | 3.19
CC(=O)N1CCC2(CC1)OC(=O)C(C)=C2C(=O)N1CCOCC1 | -4.67
Cc1ccc(C(C)C)c(OCC(O)CN2CCN(CCO)CC2)c1 (stereo not drawn) | -2.28
CC(C)C(NS(=O)(=O)c1cccs1)C(=O)NC(c1ccccc1)c1ccccc1 (stereo not drawn) | 1.37
CCCCNc1cc(C)nc2c(-c3ccc(Cl)cc3)c(C)nn12 | -2.72
O=C1NC(c2ccccc2Cl)Nc2ccccc21 (stereo not drawn) | 0.161
COc1ccccc1C(CC(=O)N1CCCC1)c1ccc2c(c1)OCO2 (stereo not drawn) | -2.29
COc1cccc(C(=O)Nc2cccc(Cl)c2)c1 | 5.31
CCOC(=O)N1CCN(C(=O)CCCCn2c(=O)[nH]c3ccsc3c2=O)CC1 | -4.06
Cc1ccc(CNC(=O)c2cc3c(Cl)nc4ccccc4c3s2)o1 | 1.66
Cc1nc2cc(-c3ccccc3)nn2c(C)c1CCC(=O)N1CCN(Cc2ccccc2)CC1 | 2.93
CCC(C)NC=C1C(=O)NC(=O)NC1=O (stereo not drawn) | 14.1
CCCN1CCN(C(=O)CSc2nnc(C)c3c(C)n(-c4ccccc4)nc23)CC1 | -6.88
COc1ccc(C(=O)c2c(C)oc3ccc(OC)cc23)cc1 | 1.38
COc1ccc(CCNC(=O)Cn2cnc3c(nnn3-c3ccc(F)cc3)c2=O)cc1OC | -3.94
O=C(c1ccco1)N1CCN(c2ccccn2)CC1 | -3.21
